In PubChem BioAssay AID1347073 (National Center for Advancing Translational Sciences (NCATS), 2019):
Out of some 45,000 compounds screened, about 200 (0.44%) were called active. Not shown: some 7% with an inconclusive outcome. Calls follow the shape of the dose curve; as a rule, active = well fitted activation curve with a large enough effect; inconclusive = small, poorly fitted or top-dose-only effect; inactive = no such curve, though single readings can be large or run the other way. Some of the results follow.

assay: qHTS of TDP-43 Inhibitors: NCGC Sytravon Library Screen; details: yeast TDP-43 toxicity rescue, BacTiter-Glo growth, 24 h; series mostly up to 46.1 µM; growth rescue (activation): at the top concentration; also: 0% is about no effect; nearly all actives have a fitted effect of over 55% in size
How it was run: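 TDP-43-expressing yeast, pregrown in raffinose, seeded at OD600 0.02 in galactose medium with compound for 24 hr at 30 deg C. Growth read by BacTiter-Glo luminescence, so rescue of toxicity appears as activation.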

Row | SMILES | growth rescue (activation)
1 | Cc1cccc(CC(=O)Nc2ccc(C(=O)N3CCCCC3)cc2)c1 | inactive: -7.47%
2 | CCc1nc2ccc(C(=O)Nc3cccc(NS(C)(=O)=O)c3)cn2c1N(C)C(=O)Cc1ccccc1 | inactive: -10.6%
3 | CC(=O)N=c1scc(-c2ccccc2)n1-c1cccc(O)c1 | inactive: 1.8%
4 | CC(C)N1CCCC(C)(C(=O)Nc2nc3ccccc3n2C)C1 (configuration not stated) | inactive: -5.02%
5 | CC(/C=C/c1ccccc1)=N\Nc1ccccc1[N+](=O)[O-] | inactive: -2.58%
6 | COc1cc(OC)c(OC)cc1/C=N/NC(=O)c1ccc(=O)n(C)c1 | inactive: 14.9%
7 | Cc1cc(C)c(NC(=S)NC(=O)c2ccc(-c3ccccc3)cc2)c(C)c1 | inactive: 25.4%
8 | CC(=O)C1=C(O)C(=O)N(c2ccc(O)cc2)C1c1ccc([N+](=O)[O-])cc1 (configuration not stated) | inactive: 1.03%
9 | Cc1ccc(C2CC(=O)C=C(NCC(C)C)C2)cc1 (configuration not stated) | inactive: 15.4%
10 | O=C(NC(c1ccc(F)cc1)c1ccc2ccccc2n1)C1CCN(Cc2ccc(Oc3ccccc3)cc2)CC1 (configuration not stated) | inactive: 9.88%
11 | CS(=O)(=O)NCCNc1cc(Cl)ccc1[N+](=O)[O-] | inactive: 7.01%
12 | CCn1c(N2CCN(C(=S)Nc3ccc(OC)cc3)CC2)nc2ccccc21 | inactive: -1.17%
13 | COc1ccc(OCC(=O)NS(=O)(=O)c2ccccc2)cc1 | inactive: 20.8%
14 | N#Cc1ccsc1NC(=O)CN1CCN(c2ccccc2)CC1 | inactive: 15.9%
15 | CCCC(C)NC(=O)Cn1c(=O)c2c(ncn2CCC(C)C)n(Cc2ccccc2)c1=O (configuration not stated) | inactive: 17.7%
16 | O=C(O)CC(c1cccc([N+](=O)[O-])c1)N1Cc2ccccc2C1=O (configuration not stated) | inactive: -2.46%
17 | CCC[N+]1(CC#CCC(c2ccccc2)c2ccccc2)CCCCC1 | inactive: 9.53%
18 | Cc1cccc(CN2CCc3c([nH]c4ccccc34)C2)c1 | inactive: -6.83%
19 | COc1ccc(-n2nc3c(N)n[nH]c3cc2=O)cc1 | inactive: -1.72%
20 | CCN(CC)C(=O)c1cccc(-c2csc(C(C)(O)c3ccccc3)n2)c1 (configuration not stated) | inactive: 22.7%
21 | Cc1ccc(S(=O)(=O)N2CCOCC2)cc1NC(=O)COC(=O)c1ccc2c(c1)OCO2 | inactive: 1.25%
22 | COc1ccc2nc(C)cc(Nc3ccccc3O)c2c1 | inactive: -2.52%
23 | C/C(CC(=O)Nc1ccc(C)c(Cl)c1)=N\NC(=O)C1CCCCC1 | inactive: 6.02%
24 | COc1ccc(CNC(=O)CCSc2ccc(F)cc2)cc1OC | inactive: 22.8%
25 | Cc1oc(/C=N/NS(=O)(=O)c2ccccc2)cc1Br | inactive: 18%
26 | COc1cc(/C=N/NC(=O)c2cc(C)n(-c3ccc(F)cc3)c2C)cc(OC)c1O | inactive: 2.67%

Row | SMILES | growth rescue (activation)
27 | O=C(Nc1ccc(S(=O)(=O)N2CCCCC2)cc1)c1ccc(F)cc1 | inactive: 18.9%
28 | Cc1cccc(C)c1OCc1nc2c3c(-c4ccccc4)c(-c4ccccc4)oc3ncn2n1 | inactive: 8.03%
29 | COc1ccc(C2CCCN2CC(O)COc2ccccc2C(C)C)cc1 (configuration not stated) | inactive: 11.8%
30 | CCn1cc(C(=O)N2CCN(c3ccc(C(C)=O)cc3)CC2)c2cc(OC)c(OC)cc2c1=O | inactive: 0.345%
31 | CCC(CO)NS(=O)(=O)c1cc(-c2nn(C)c(=O)c3ccccc23)ccc1C (configuration not stated) | inactive: -6.82%
32 | O=C(COC(=O)Cc1ccc(Cl)cc1Cl)NCCC1=CCCCC1 | inactive: 22.8%
33 | CN(CCCC(=O)Nc1ccccc1F)S(=O)(=O)c1ccc(F)cc1 | inactive: 3.46%
34 | COc1ccc(Cl)cc1NC(=O)C1Cc2ccccc2CN1S(C)(=O)=O (configuration not stated) | inactive: -4.66%
35 | CCc1ccc(NC(=O)Cn2c3[n+](c4c(F)c(F)ccc42)CCCCC3)cc1 | inactive: -15.3%
36 | O=C(O)c1cc(NC(=S)NC(=O)C(c2ccccc2)c2ccccc2)ccc1Cl | inactive: 2.25%
37 | Cn1c(=O)c(=O)n(C)c2cc(S(=O)(=O)CCC(=O)Nc3ccc(F)cc3)ccc21 | inactive: 10.9%
38 | CC(=O)Nc1ccc(NC(=O)C/C(C)=N/NC(=O)COc2cc(C)c(Br)cc2Br)cc1 | inactive: 7.96%
39 | O=C(CC(c1ccccc1)c1ccccc1)NCC(O)c1ccc([N+](=O)[O-])cc1 (configuration not stated) | inactive: -2.38%
40 | COc1ccc(C(=O)N/N=C/c2ccccc2OC(=O)c2ccccc2)cc1 | inactive: 5.42%
41 | COC(=O)c1ccc(/C=C2/SC(=S)N(CCCC(=O)Nc3ccccn3)C2=O)cc1 | inactive: 8.68%
42 | Cc1ccc(-c2noc(Cn3nc(C(=O)O)c4ccccc4c3=O)n2)cc1 | inactive: -3.51%
43 | COc1ccc(/C=N/Nc2cc(C)nc(N3CCOCC3)n2)cc1OC | inactive: 23.2%
44 | FC(F)(F)c1cc(Cl)c2nnc(C(F)(F)Cl)n2c1 | inactive: -7.28%
45 | COc1cc(C2SCC(=O)N2CCCN(C)C)cc(OC)c1OC (configuration not stated) | inactive: -5.97%
46 | CCCN1CN=C(NS(=O)(=O)c2ccc(C)cc2)NC1 | inactive: 5.24%
47 | COc1cccc(N2CCN(C(=O)c3cccn4c(=O)c5c(C)c(C)sc5nc34)CC2)c1 | inactive: -2.5%
48 | C=C(C)C(=O)NNc1ccccc1 | inactive: 6.73%
49 | CCOC(=O)C1=C(C)NC(C)=C(C(=O)OCC)C1C(=O)OCC(=O)NCc1ccccc1 | inactive: 7.06%
50 | CCn1c(SCC(=O)Nc2ncc(C(F)(F)F)cc2Cl)nnc1-c1cccc(C)c1 | inactive: 24.1%
51 | CCN(C(=O)COC(=O)c1cc(-c2ccccc2)nc2c1c(C)nn2-c1ccc(C)cc1)C1CCS(=O)(=O)C1 (configuration not stated) | inactive: 2.44%
52 | CCCC(C(=O)NCc1ccco1)N(C(=O)CNS(=O)(=O)c1ccccc1)c1ccc(OC)cc1 (configuration not stated) | inactive: 21.5%
